{
  "source": "the supplement of paper PMC8728848",
  "assay_in_all_cases": "glycan array binding signal (z-score within array); higher = stronger binding",
  "conditions_in_all_cases": "glycan notation: IUPAC condensed, linker removed",
  "key": {"[1]": {"target": "GalNAc3S(b1-4)[Fuc(a1-3)]GlcNAc", "outline": "(§1)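 The binding signal is a Z-score computed within each array and averaged over linkers. Arrays of the same protein sequence at different concentrations or buffers were also averaged together. Data originate from 3228 arrays in the Consortium for Functional Glycomics database, kept only where the protein sequence was available.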"}, "GalNAc4S6S(b1-4)GlcNAc": {"target": "GalNAc4S6S(b1-4)GlcNAc", "outline": "as §1"}, "GalNAc6S(b1-4)GlcNAc": {"target": "GalNAc6S(b1-4)GlcNAc", "outline": "as §1"}, "Glc(a1-4)Glc": {"target": "Glc(a1-4)Glc", "outline": "as §1"}, "[2]": {"target": "Glc(a1-4)Glc(a1-4)Glc(a1-4)Glc", "outline": "as §1"}, "Glc(a1-6)Glc(a1-6)Glc": {"target": "Glc(a1-6)Glc(a1-6)Glc", "outline": "as §1"}, "[3]": {"target": "Glc(a1-6)Glc(a1-6)Glc(a1-6)Glc", "outline": "as §1"}, "Glc(b1-4)Glc": {"target": "Glc(b1-4)Glc", "outline": "as §1"}, "Glc(b1-6)Glc": {"target": "Glc(b1-6)Glc", "outline": "as §1"}, "GlcA(b1-3)Gal": {"target": "GlcA(b1-3)Gal", "outline": "as §1"}, "GlcA(b1-3)GlcNAc": {"target": "GlcA(b1-3)GlcNAc", "outline": "as §1"}, "GlcA(b1-6)Gal": {"target": "GlcA(b1-6)Gal", "outline": "as §1"}, "[4]": {"target": "GlcA3S(b1-3)Gal(b1-4)GlcNAc(b1-2)Man", "outline": "as §1"}, "[5]": {"target": "GlcA3S(b1-3)Gal(b1-4)GlcNAc(b1-3)Gal(b1-4)Glc", "outline": "as §1"}, "[6]": {"target": "GlcNAc(a1-3)Gal(b1-4)GlcNAc", "outline": "as §1"}, "[7]": {"target": "GlcNAc(a1-4)Gal(b1-3)GlcNAc", "outline": "as §1"}, "[8]": {"target": "GlcNAc(a1-4)Gal(b1-4)GalNAc", "outline": "as §1"}, "[9]": {"target": "GlcNAc(a1-4)Gal(b1-4)GlcNAc", "outline": "as §1"}, "[10]": {"target": "GlcNAc(a1-4)Gal(b1-4)GlcNAc(b1-3)Gal(b1-4)Glc", "outline": "as §1"}, "[11]": {"target": "GlcNAc(a1-4)Gal(b1-4)GlcNAc(b1-3)Gal(b1-4)GlcNAc", "outline": "as §1"}, "[12]": {"target": "GlcNAc(a1-4)Gal(b1-4)GlcNAc(b1-3)Gal(b1-4)GlcNAc(b1-3)Gal(b1-4)GlcNAc", "outline": "as §1"}, "[13]": {"target": "GlcNAc(a1-4)Gal(b1-4)GlcNAc(b1-3)Gal(b1-4)[Fuc(a1-3)]GlcNAc(b1-3)Gal(b1-4)[Fuc(a1-3)]GlcNAc", "outline": "as §1"}, "[14]": {"target": "GlcNAc(a1-6)Gal(b1-4)GlcNAc", "outline": "as §1"}, "[15]": {"target": "GlcNAc(b1-2)Gal(b1-3)GalNAc", "outline": "as §1"}, "[16]": {"target": "GlcNAc(b1-2)Man(a1-3)[GlcNAc(b1-2)Man(a1-6)]Man(b1-4)GlcNAc(b1-4)GlcNAc", "outline": "as §1"}, "[17]": {"target": "GlcNAc(b1-2)Man(a1-3)[GlcNAc(b1-2)Man(a1-6)]Man(b1-4)GlcNAc(b1-4)[Fuc(a1-6)]GlcNAc", "outline": "as §1"}, "[18]": {"target": "GlcNAc(b1-2)Man(a1-3)[GlcNAc(b1-4)][GlcNAc(b1-2)Man(a1-6)]Man(b1-4)GlcNAc(b1-4)GlcNAc", "outline": "as §1"}, "[19]": {"target": "GlcNAc(b1-2)Man(a1-3)[GlcNAc(b1-4)][GlcNAc(b1-2)Man(a1-6)]Man(b1-4)GlcNAc(b1-4)[Fuc(a1-6)]GlcNAc", "outline": "as §1"}, "[20]": {"target": "GlcNAc(b1-2)[GlcNAc(b1-4)]Man(a1-3)[GlcNAc(b1-2)Man(a1-6)]Man(b1-4)GlcNAc(b1-4)GlcNAc", "outline": "as §1"}, "[21]": {"target": "GlcNAc(b1-2)[GlcNAc(b1-4)]Man(a1-3)[GlcNAc(b1-4)][GlcNAc(b1-2)Man(a1-6)]Man(b1-4)GlcNAc(b1-4)GlcNAc", "outline": "as §1"}, "[22]": {"target": "GlcNAc(b1-2)[GlcNAc(b1-4)]Man(a1-3)[GlcNAc(b1-4)][GlcNAc(b1-2)[GlcNAc(b1-6)]Man(a1-6)]Man(b1-4)GlcNAc(b1-4)GlcNAc", "outline": "as §1"}, "[23]": {"target": "GlcNAc(b1-2)[GlcNAc(b1-4)]Man(a1-3)[GlcNAc(b1-4)][GlcNAc(b1-2)[GlcNAc(b1-6)]Man(a1-6)]Man(b1-4)GlcNAc(b1-4)[Fuc(a1-6)]GlcNAc", "outline": "as §1"}, "[24]": {"target": "GlcNAc(b1-2)[GlcNAc(b1-6)]Man(a1-6)[GlcNAc(b1-2)Man(a1-3)]Man(b1-4)GlcNAc(b1-4)GlcNAc", "outline": "as §1"}, "[25]": {"target": "GlcNAc(b1-2)[GlcNAc(b1-6)]Man(a1-6)[GlcNAc(b1-2)Man(a1-3)]Man(b1-4)GlcNAc(b1-4)[Fuc(a1-6)]GlcNAc", "outline": "as §1"}, "[26]": {"target": "GlcNAc(b1-2)[GlcNAc(b1-6)]Man(a1-6)[GlcNAc(b1-4)][GlcNAc(b1-2)Man(a1-3)]Man(b1-4)GlcNAc(b1-4)GlcNAc", "outline": "as §1"}, "GlcNAc(b1-3)Fuc": {"target": "GlcNAc(b1-3)Fuc", "outline": "as §1"}, "GlcNAc(b1-3)Gal": {"target": "GlcNAc(b1-3)Gal", "outline": "as §1"}, "[27]": {"target": "GlcNAc(b1-3)Gal(b1-3)GalNAc", "outline": "as §1"}},
  "note": "The list shows a part of the results.",
  "data": [
    {"binder": "diCBM40 CPF071 (Clostridium perfringens) (protein) MAHHHHHHVGTGSNDDDDKSPDPMLSSLGEYKDINLESSNASNITYDLEKYKNLDEGTIVVRFNSKDSKIQSLLGISNSKTKNGYFNFYVTNSRVGFELRNQKNEGNTQNGTENLVHMYKDVALNDGDNTVALKIEKNKGYKLFLNGKMIKEVKDTNTKFLNNIENLDSAFIGKTNRYGQSNEYNFKGNIGFMNIYNEPLGDDYLLSKTGETKALNGSELGSGSGLSSLGEYKDINLESSNASNITYDLEKYKNLDEGTIVVRFNSKDSKIQSLLGISNSKTKNGYFNFYVTNSRVGFELRNQKNEGNTQNGTENLVHMYKDVALNDGDNTVALKIEKNKGYKLFLNGKMIKEVKDTNTKFLNNIENLDSAFIGKTNRYGQSNEYNFKGNIGFMNIYNEPLGDDYLLSKTGETK", "values": [
      {"measurement": "glycan array binding signal (z-score)", "setting": "[1]", "value": -0.102},
      {"measurement": "glycan array binding signal (z-score)", "setting": "GalNAc4S6S(b1-4)GlcNAc", "value": -0.325},
      {"measurement": "glycan array binding signal (z-score)", "setting": "GalNAc6S(b1-4)GlcNAc", "value": -0.29},
      {"measurement": "glycan array binding signal (z-score)", "setting": "Glc(a1-4)Glc", "value": -0.311},
      {"measurement": "glycan array binding signal (z-score)", "setting": "[2]", "value": -0.275},
      {"measurement": "glycan array binding signal (z-score)", "setting": "Glc(a1-6)Glc(a1-6)Glc", "value": -0.269},
      {"measurement": "glycan array binding signal (z-score)", "setting": "[3]", "value": -0.24},
      {"measurement": "glycan array binding signal (z-score)", "setting": "Glc(b1-4)Glc", "value": -0.347},
      {"measurement": "glycan array binding signal (z-score)", "setting": "Glc(b1-6)Glc", "value": -0.32},
      {"measurement": "glycan array binding signal (z-score)", "setting": "GlcA(b1-3)Gal", "value": -0.313},
      {"measurement": "glycan array binding signal (z-score)", "setting": "GlcA(b1-3)GlcNAc", "value": -0.322},
      {"measurement": "glycan array binding signal (z-score)", "setting": "GlcA(b1-6)Gal", "value": -0.12},
      {"measurement": "glycan array binding signal (z-score)", "setting": "[4]", "value": -0.33},
      {"measurement": "glycan array binding signal (z-score)", "setting": "[5]", "value": -0.304},
      {"measurement": "glycan array binding signal (z-score)", "setting": "[6]", "value": -0.342},
      {"measurement": "glycan array binding signal (z-score)", "setting": "[7]", "value": -0.308},
      {"measurement": "glycan array binding signal (z-score)", "setting": "[8]", "value": 0.14},
      {"measurement": "glycan array binding signal (z-score)", "setting": "[9]", "value": -0.233},
      {"measurement": "glycan array binding signal (z-score)", "setting": "[10]", "value": -0.283},
      {"measurement": "glycan array binding signal (z-score)", "setting": "[11]", "value": -0.335},
      {"measurement": "glycan array binding signal (z-score)", "setting": "[12]", "value": -0.311},
      {"measurement": "glycan array binding signal (z-score)", "setting": "[13]", "value": -0.032},
      {"measurement": "glycan array binding signal (z-score)", "setting": "[14]", "value": -0.35},
      {"measurement": "glycan array binding signal (z-score)", "setting": "[15]", "value": -0.324},
      {"measurement": "glycan array binding signal (z-score)", "setting": "[16]", "value": -0.319},
      {"measurement": "glycan array binding signal (z-score)", "setting": "[17]", "value": -0.293},
      {"measurement": "glycan array binding signal (z-score)", "setting": "[18]", "value": -0.326},
      {"measurement": "glycan array binding signal (z-score)", "setting": "[19]", "value": -0.342},
      {"measurement": "glycan array binding signal (z-score)", "setting": "[20]", "value": -0.274},
      {"measurement": "glycan array binding signal (z-score)", "setting": "[21]", "value": -0.262},
      {"measurement": "glycan array binding signal (z-score)", "setting": "[22]", "value": -0.298},
      {"measurement": "glycan array binding signal (z-score)", "setting": "[23]", "value": -0.326},
      {"measurement": "glycan array binding signal (z-score)", "setting": "[24]", "value": -0.337},
      {"measurement": "glycan array binding signal (z-score)", "setting": "[25]", "value": -0.346},
      {"measurement": "glycan array binding signal (z-score)", "setting": "[26]", "value": -0.343},
      {"measurement": "glycan array binding signal (z-score)", "setting": "GlcNAc(b1-3)Fuc", "value": -0.295},
      {"measurement": "glycan array binding signal (z-score)", "setting": "GlcNAc(b1-3)Gal", "value": -0.239},
      {"measurement": "glycan array binding signal (z-score)", "setting": "[27]", "value": -0.056}
    ]}
  ]
}
